# From PubChem BioAssay AID624296 (National Center for Advancing Translational Sciences (NCATS), 2012)
# Screen size: about 350,000 compounds; about 9,900 (2.8%) were called active. The shares of active, inactive and inconclusive entries below differ from those in the screen. The call rests on the fitted dose curve; in most records, active means well fitted activation curve with a large enough effect; inconclusive means small, poorly fitted or top-dose-only effect; inactive means no such curve, though single readings can be large or run the other way. No potency is given beside an inconclusive call; the fits are too rough.
# Test: A quantitative high throughput screen for small molecules that induce DNA re-replication in MCF 10a normal breast cells. Further: nearly all actives have a fitted effect of over 50% in size. On activity, positive = re-replication: % of control where 0% means no effect.
# Settings: MCF 10A DNA re-replication, Hoechst nuclear intensity, 48 h; activity, positive = re-replication: at 46.1 µM (top of the series)
# Potency means the concentration at half of the fitted maximal effect; tags describe the fitted curve by direction and shape.
Structure (SMILES),Potency,"activity, positive = re-replication"
O=C(CSc1nc(Nc2ccccc2)nc(N2CCOCC2)n1)N1CCc2ccccc21,"inconclusive [activator, partial curve]",–
CCCCOC(=O)Nc1nc2ccc([N+](=O)[O-])cc2s1,inactive,–
Cn1c(=O)c2c(nc(NC(Cc3ccccc3)C(=O)O)n2Cc2ccccc2)n(C)c1=O (stereo not given),inactive,–
CCCCc1ccc(N=N/C(C(=O)Nc2ccc(NC(C)=O)cc2OC)=C(/C)O)cc1,inactive,–
CCOC(=O)C1(Cc2ccccc2C)CCCN(C(=O)c2ccc(CSC)o2)C1 (stereo not given),"inconclusive [activator, single point]",–
CCOC(=O)C1=C(N)n2c(s/c(=C\c3ccco3)c2=O)=C(C(=O)OCC)C1c1ccco1 (stereo not given),active: 5.8 µM,–
COc1ccc(S(=O)(=O)NC2CC2)cc1Cl,inactive,–
CCN(CC)CCn1c2c(c(SCC(=O)Nc3ccc(C(C)C)cc3)nc1=O)CCC2,"inconclusive [activator, single point]",–
CC1=C(C(=O)OCc2ccccc2)C(c2ccc([N+](=O)[O-])cc2)NC(=O)N1C (stereo not given),"inconclusive [activator, partial curve, poor fit]",–
CCc1noc(C)c1C(=O)Nc1nc2c(C)cccc2s1,"inconclusive [activator, partial curve, poor fit]",–
Cc1ccc(C)c(C2C(C#N)=C(N)Oc3cc(C)oc(=O)c32)c1 (stereo not given),"inconclusive [activator, single point]",–
COc1cc(/C=N/Nc2ncc(C(F)(F)F)cc2Cl)cc(OC)c1OC,"inconclusive [activator, single point]",–
CN(C(=O)c1cccc(NC(=O)Cc2cccc(NC(=O)C3CCN(C(=O)c4ccccc4)CC3)c2)c1)C1CCCC1,"inconclusive [activator, full curve, poor fit]",–
CN(CCc1ccccc1)C(=O)c1ccc(NC(=O)Cc2cccc(NC(=O)C3CCN(C(=O)C4CCCCC4)CC3)c2)cc1,"inconclusive [activator, full curve, poor fit]",–
Cc1ccc(-c2cc(C(=O)Nc3c(C)n(C)n(-c4ccccc4)c3=O)c3ccccc3n2)cc1,inactive,–
N#C/C(=C\c1ccccc1Cl)C(=O)NC(=O)Oc1ccccc1,"inconclusive [activator, partial curve, poor fit]",–
CC1(C)CC(=O)C(C2(O)C(=O)Nc3ccccc32)CO1 (stereo not given),"inconclusive [activator, single point]",–
Cc1cc(C)c2c(N)c(C(=O)Nc3ccccc3Cl)sc2n1,active: 11.6 µM,–
Cc1cccc(C)c1NC(=O)COC(=O)CSc1nnc(N)s1,"inconclusive [activator, partial curve, poor fit]",–
COc1ccccc1N(CC(=O)Nc1cc(C)on1)S(=O)(=O)c1ccc(Cl)cc1,inactive,–
O=S(=O)(c1cccc2nsnc12)N1CCN(Cc2ccccc2)CC1,"inconclusive [activator, full curve, poor fit]",–
Cc1c(N)cc2c(c1N)C(C)(C)CC2(C)C,inactive,–
Cc1ccc2oc(C(=O)N3CCN(Cc4ncccc4C)CC3)c(C)c2c1,inactive,–
CCC(=O)Nc1cc2[nH]c(=O)cc(C)c2cc1C,active: 0.651 µM,–

Structure (SMILES),Potency,"activity, positive = re-replication"
Cc1sc(NC(=O)c2ccco2)c(CN2CCN(c3ccccn3)CC2)c1C,"inconclusive [activator, single point]",–
COC(=O)C1=C(C)NC(C)=C(C(=O)OCCCN2CCC(c3ccccc3)(c3ccccc3)CC2)C1c1cccc([N+](=O)[O-])c1 (stereo not given),"inconclusive [activator, full curve]",–
O=C(Nc1ccccc1)/C(=C/c1ccc(F)cc1)NC(=O)c1ccco1,inactive,–
COc1cc2cnc(-c3ccccc3)c(-c3ccc(C(F)(F)F)cc3)c2cc1OC,"inconclusive [activator, single point]",–
COc1ccc(NC(=O)CCCN2C(=O)CN(C)C2=O)c(OC)c1,inactive,–
CCOC(=O)/C=C/C(=O)Nc1ccc(S(=O)(=O)N2CCc3ccccc32)cc1,"inconclusive [activator, single point]",–
COc1ccc(CCNC(=O)CNS(=O)(=O)c2ccc(Br)s2)cc1OC,"inconclusive [activator, single point]",–
COc1cc(/C=C2\C(=O)NN(c3ccccc3)C2=O)cc([N+](=O)[O-])c1O,"inconclusive [activator, single point]",–
CCCCCCCCCCCCS[C@H]1CS(=O)(=O)C[C@@H]1O,"inconclusive [activator, partial curve, poor fit]",–
COc1cc2cc(CCOC(=O)CCCC(=O)O)oc(=O)c2cc1OC,"inconclusive [activator, full curve, poor fit]",–
CCN1CCN(CC(=O)Nc2cc(S(=O)(=O)N(CC)c3ccccc3)ccc2Cl)CC1,active: 20.6 µM,–
Cc1sc2ncn(CC(=O)NCc3ccco3)c(=O)c2c1-c1ccccc1,inactive,–
CN(C)CCCN(C(=O)c1ccc(S(=O)(=O)N2CCc3ccccc32)cc1)c1nc2c(Cl)cccc2s1,"inconclusive [activator, partial curve, poor fit]",–
Fc1ccc(N2N=C(c3cccs3)CC2c2ccccc2)cc1 (stereo not given),active: 2.59 µM,–
COc1ccc(C(=O)C(CCCCC(CN(C)C)C(=O)c2ccc(OC)cc2)CN(C)C)cc1 (stereo not given),"inconclusive [activator, single point]",–
CN1CCN(S(=O)(=O)c2ccc(Nc3ccc(F)cc3)c([N+](=O)[O-])c2)CC1,"inconclusive [activator, partial curve, poor fit]",–
CCOC(=O)NC1(Nc2cccc(Cl)c2)Oc2ccccc2O1,"inconclusive [activator, full curve, poor fit]",–
O=C(/C=C/c1cccc(Br)c1)NC1CCN(Cc2ccccc2)CC1,inactive,–
O=C(Cc1ccccc1)NNC(=O)c1ccc(Br)o1,"inconclusive [activator, single point]",–
O=C(CSc1ccc2nnc(-c3ccncc3)n2n1)Nc1ccc2c(c1)OCO2,inactive,–
Cn1c(=O)c2c(SCc3ccccc3)nc(C3CC3)nc2n(C)c1=O,"inconclusive [activator, partial curve, poor fit]",–
CN1c2ccccc2C(=O)NC1c1ccc([N+](=O)[O-])s1 (stereo not given),"inconclusive [activator, full curve, poor fit]",–
Cc1cccnc1NC(=O)c1ccc(Br)o1,inactive,–
CNC(=S)N1N=C(c2cccs2)CC1c1ccc(F)cc1 (stereo not given),inactive,–

Structure (SMILES),Potency,"activity, positive = re-replication"
CCOc1ccc(CC(=O)N/N=C(\C)c2cccnc2)cc1OCC,active: 20.6 µM,–
CN1CCN(C(=O)C2CCC(CNS(=O)(=O)c3cccc4cccnc34)CC2)CC1 (stereo not given),"inconclusive [activator, single point]",–
OC(CN1CCN(C(c2ccccc2)c2ccccc2)CC1)c1ccccc1 (stereo not given),"inconclusive [activator, single point]",–
CCN1CCN(C(=O)C2CCN(S(=O)(=O)c3ccc(Br)cc3)CC2)CC1,"inconclusive [activator, partial curve]",–
OCCN(Cc1ccccc1)Cc1ccc(C(F)(F)F)cc1,"inconclusive [activator, partial curve, poor fit]",–
CC(C)c1nc(SCC(=O)Nc2nc3c(s2)CCCC3)c2ccccc2n1,"inconclusive [activator, single point]",–
CCOc1cc(C(=O)N/N=C/C(Br)=C/c2ccccc2)cc(OCC)c1OCC,active: 1.3 µM,–
Cc1cc(Br)c(NC(=O)COC(=O)CC2CC3CCC2C3)c(Br)c1 (stereo not given),inactive,–
O=C(NCc1cccs1)c1ccc(CS(=O)Cc2cccc(Cl)c2)o1 (stereo not given),inactive,–
O=C(CCN1CCOCC1)c1ccccc1,active: 2.59 µM,–
CC1CC1C(=O)Nc1nc(-c2cccs2)c(-c2cccs2)s1 (stereo not given),"inconclusive [activator, single point]",–
COc1ccc(C2CCCN2C(=S)Nc2cccc(C)c2C)cc1OC (stereo not given),inactive,–
CC(C)c1ccc(Nc2nnc(SC3CCOC3=O)s2)cc1 (stereo not given),"inconclusive [activator, partial curve, poor fit]",–
O=C(C=Cc1cccnc1)c1ccccc1,"inconclusive [activator, single point]",–
O=C(CCNC(=O)c1ccc(Br)cc1)Nc1ccccc1N1CCCCC1,"inconclusive [activator, single point]",–
COc1ccc(-c2nnc3sc(C4CCCCC4)nn23)cc1OC,–,inactive: -183% [at 0.0737 µM]
CC(C)(C)c1ccc(CCC(CC(=O)O)CC(=O)O)cc1,inactive,–
COc1ccc(S(=O)(=O)Nc2cccc3c2O[C@H](CN(C)C(=O)Nc2c(C)noc2C)[C@@H](C)CN([C@H](C)CO)C3=O)cc1,inactive,–
CCN(CC)S(=O)(=O)c1cccc(C(=O)OCC(=O)C23CC4CC(CC(C4)C2)C3)c1,inactive,–
Cc1[nH]n(-c2ccccc2)c(=O)c1N=Nc1cccc(C(=O)O)c1,inactive,–
CN1CCOC(=O)/C1=N/Nc1cc(Cl)ccc1Cl,inactive,–
Cc1ccc(S(=O)(=O)N(C)c2ccc(C(=O)N3CCN(Cc4ccc5c(c4)OCO5)CC3)cc2)cc1,"inconclusive [activator, partial curve, poor fit]",–
